Source: PubChem BioAssay AID1030 (National Center for Advancing Translational Sciences (NCATS), 2008)
In all, about 220,000 compounds went through this assay and about 16,000 (7.3%) were called active. Inconclusive means that the source gave no clear call. Such entries were picked first, then a sample of the others. Calls follow the shape of the dose curve; as a rule, active = well fitted inhibition curve with a large enough effect (not every such curve was filed as active); inconclusive = small, poorly fitted or top-dose-only effect, or another doubt; inactive = no such curve, though single readings can be large or run the other way. No potency is given beside an inconclusive call; the fits are too rough.

Each molecule was assayed against Aldehyde dehydrogenase 1A1 (Homo sapiens) (UniProt P00352) (assay: qHTS Assay for Inhibitors of Aldehyde Dehydrogenase 1 (ALDH1A1)). Details: Purified ALDH1A1, NADH fluorescence, propionaldehyde substrate; series mostly up to 75.3 µM; activity, negative = inhibition: at the top concentration.
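For activity, negative = inhibition in this document: plate controls were no enzyme wells and a reference inhibitor.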
Potency is read from the fitted curve at half-maximal effect; tags tell the direction and shape of the fitted curve.

Sequence of UniProt P00352 (P00352 whole entry, looked up): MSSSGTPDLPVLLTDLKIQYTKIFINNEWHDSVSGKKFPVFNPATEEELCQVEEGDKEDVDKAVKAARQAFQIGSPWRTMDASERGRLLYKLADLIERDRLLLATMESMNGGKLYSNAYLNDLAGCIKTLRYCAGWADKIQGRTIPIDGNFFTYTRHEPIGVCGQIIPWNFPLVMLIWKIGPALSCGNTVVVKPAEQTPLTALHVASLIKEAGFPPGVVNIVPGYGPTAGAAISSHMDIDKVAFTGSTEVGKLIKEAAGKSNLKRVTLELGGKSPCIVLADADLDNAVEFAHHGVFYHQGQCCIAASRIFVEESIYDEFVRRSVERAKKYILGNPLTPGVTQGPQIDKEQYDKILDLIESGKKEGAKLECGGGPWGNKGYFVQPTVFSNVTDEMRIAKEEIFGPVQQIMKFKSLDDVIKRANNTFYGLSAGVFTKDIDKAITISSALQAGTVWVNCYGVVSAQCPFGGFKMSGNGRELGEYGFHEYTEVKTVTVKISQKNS

SMILES | Potency | activity, negative = inhibition
CCCc1cc(=O)[nH]c(SCCOc2ccc(OCC)cc2)n1 | inconclusive [inhibitor, full curve] | –
O=c1c(-c2cccs2)nc2cnc(N3CCNCC3)nc2n1CCc1ccccc1 | inconclusive [inhibitor, partial curve] | –
Cc1ccc(Cn2c(=O)c3c(nc4n3CCCN4Cc3ccccc3)n(C)c2=O)cc1 | inconclusive [inhibitor, partial curve] | –
CCN(C(=O)c1cc2cccc(OC)c2oc1=O)c1ccccc1 | – | inactive: -2.46%
COc1cc(C(c2c(C)[nH][nH]c2=O)c2c(C)[nH][nH]c2=O)cc([N+](=O)[O-])c1O | – | inactive: 1.19%
Cc1ccccc1NC(=S)NC(=O)c1cc(-c2ccccc2)nc2ccccc12 | inconclusive [inhibitor, single point] | –
Cc1cccc(NC(=O)Cc2coc3ccc4ccccc4c23)n1 | – | inactive: -3.69%
Cc1cc(Cl)c(S(=O)(=O)N2CC(C)OC(C)C2)cc1OCC(N)=O (stereo unspecified) | – | inactive: 5.36%
Cc1ccc(-c2nn(-c3ccccc3)cc2C=O)o1 | inconclusive [inhibitor, partial curve] | –
COc1ccc(-c2[nH]ncc2CN2CCN(C3CCCCC3)C(=O)C2)cc1F | active: 1.41 µM | –
c1ccc(COC2CCCN(Cc3nc(-c4cnccn4)no3)C2)cc1 (stereo unspecified) | – | inactive: -0.652%
CCOC(=O)c1c(C)[nH]c(C(=O)COC(=O)c2ccccn2)c1C | inconclusive [inhibitor, single point] | –
CC(=O)NC(CC(C)C)C(=O)NC(=O)NCc1ccccc1 (stereo unspecified) | active: 5.01 µM | –
CCOC(=O)C1CCCN(C(=O)CSCc2ccccc2)C1 (stereo unspecified) | inconclusive [inhibitor, single point] | –
CCOC(=O)CN1C(=O)C2(OCCCO2)c2ccccc21 | active: 8.91 µM | –
Cc1ncsc1C(=O)Nc1nc2c(s1)CCCC2 | inconclusive [inhibitor, partial curve] | –
CC(C)(C)Nc1ncnc2c1cnn2-c1ccccc1 | – | inactive: -2.33%
CC(C)(C)c1ccc(C(=O)N2CCC(=O)N([C@H](COCc3ccc(Cl)cc3)Cc3ccccc3)CC2)cc1 | inconclusive [inhibitor, single point] | –
N#Cc1ccccc1OCCN1C(=O)c2ccccc2C1=O | inconclusive [inhibitor, partial curve] | –
CCOC(=O)CC1C(=O)NCCN1S(=O)(=O)c1ccc(Cl)cc1Cl (stereo unspecified) | – | inactive: -12.4%
O=C(Nc1cccc(NC(=S)NC(=O)c2cccs2)c1)c1ccccc1 | inconclusive [inhibitor, single point] | –
